We go through 9 molecules from patent publication US20230272023A1 (HUMAN CELL, published 2023).

Assay [1] concerns the target T1, human TrkA on TF1 erythroleukemic cells (human, UniProt P04629 33-796). Nature of the assay: cell-based or functional assay.
The target in assay [2] is T1, human TrkA on TF1 erythroleukemic cells. Description: cell-based or functional assay. The source holds these as a separate data set.
The target is the same in assay [3]. Description: cell-based or functional assay. The source holds these as a separate data set.
Assay [4] has the same target. Description: cell-based or functional assay. This is another data set of the same source.
Assay [5] deals with T2, p75^NTR receptor immobilized on the Biacore chip (UniProt P08138 29-250).
T2 sequence (looked up): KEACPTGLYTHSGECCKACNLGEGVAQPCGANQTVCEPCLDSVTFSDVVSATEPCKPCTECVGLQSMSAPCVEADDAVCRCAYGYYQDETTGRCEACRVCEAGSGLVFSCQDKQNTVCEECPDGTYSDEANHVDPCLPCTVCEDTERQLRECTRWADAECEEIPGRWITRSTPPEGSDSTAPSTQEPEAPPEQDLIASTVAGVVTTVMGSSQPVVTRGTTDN
Description: SPR, Biacore 3000; against NGF wt. As to the method: (§1) The binding experiments were performed on Biacore 3000 at 25° C. Receptors were directly immobilized by direct immobilization using EDC/NHS amine coupling kit and GE protocol. The receptor was coated until the desired RU. The unoccupied active sites on the chip were quenching by flowing 1 M ethanol amine. […] Data were analyzed using Biacore 3000 bia evaluation software (Biacore) using the values after reference subtraction. KD was determined by applying either local (for scouting) or global (full kinetics) 1:1 Langmuir fitting model. Full kinetics was performed with the range of analyte at a 2-fold serial dilution and flowed over the ligand from lowest to highest concentration range.

Assay [6] addresses T2, p75^NTR receptor immobilized on the …. Nature of the assay: SPR, Biacore 3000; Table 4 column Binding affinity (nM), P75^NTR. As to the method:
as §1
For orientation: SPR reads the build-up and loss of mass on a sensor chip optically.

For assay [7] the target is unchanged. Nature of the assay: SPR, Biacore 3000, 25 C, receptor amine-coupled on chip, NGF mutein as analyte, 1:1 Langmuir. The method, then: as §1

T1 sequence (P04629 33-796): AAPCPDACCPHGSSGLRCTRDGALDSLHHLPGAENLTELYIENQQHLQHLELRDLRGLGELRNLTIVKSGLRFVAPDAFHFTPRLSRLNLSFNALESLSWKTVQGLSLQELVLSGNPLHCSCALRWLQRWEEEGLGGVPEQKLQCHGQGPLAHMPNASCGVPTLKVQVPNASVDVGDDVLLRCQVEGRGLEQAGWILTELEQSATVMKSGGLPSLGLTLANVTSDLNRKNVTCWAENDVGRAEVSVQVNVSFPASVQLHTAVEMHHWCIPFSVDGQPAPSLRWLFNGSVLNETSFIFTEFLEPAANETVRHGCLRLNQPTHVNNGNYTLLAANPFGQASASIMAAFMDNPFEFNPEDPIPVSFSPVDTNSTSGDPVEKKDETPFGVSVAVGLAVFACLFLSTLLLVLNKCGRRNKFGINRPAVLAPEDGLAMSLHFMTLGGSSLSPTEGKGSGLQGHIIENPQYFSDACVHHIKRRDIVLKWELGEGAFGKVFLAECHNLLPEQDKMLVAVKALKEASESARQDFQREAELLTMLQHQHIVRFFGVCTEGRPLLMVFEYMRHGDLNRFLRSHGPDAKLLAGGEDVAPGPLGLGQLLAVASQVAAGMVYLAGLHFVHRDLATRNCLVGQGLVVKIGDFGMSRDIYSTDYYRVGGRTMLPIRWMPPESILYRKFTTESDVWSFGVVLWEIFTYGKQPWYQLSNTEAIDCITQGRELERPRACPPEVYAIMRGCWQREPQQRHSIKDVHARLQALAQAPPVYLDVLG

B1: NGF R100D (ligand)
chain: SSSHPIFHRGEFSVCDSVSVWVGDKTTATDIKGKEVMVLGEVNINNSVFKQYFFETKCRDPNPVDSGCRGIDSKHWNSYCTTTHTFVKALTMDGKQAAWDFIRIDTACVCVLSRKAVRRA
Turning to B1, in assay [1], the “EC50 in TF-1 proliferation assay, protein kept 7 days at 4° C.” value (shortened to “EC50 in TF-1 proliferation assay … at 4° C.”) is 6.84 ng/mL and the “EC50 in TF-1 proliferation assay, protein kept 7 days at 55° C.” value (shortened to “EC50 … protein kept 7 days at 55° C.”) is 17.1 ng/mL.

B2: NGF K32D (ligand)
chain: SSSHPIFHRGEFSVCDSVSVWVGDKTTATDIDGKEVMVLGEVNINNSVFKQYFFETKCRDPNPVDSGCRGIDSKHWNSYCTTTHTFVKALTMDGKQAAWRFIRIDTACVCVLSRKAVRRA
As for B2, the “EC50 for stimulating TF1 cell proliferation, fold increase against the wildtype” value in assay [2] was found to be 2 fold. In assay [3], the “EC50 in TF-1 proliferation assay, 4° C.” value was determined as 4.79 ng/mL and the “EC50 in TF-1 proliferation assay, after storage at 55° C.” value (“EC50 … after storage at 55° C.” below) came out at 5.91 ng/mL.

B3: NGF K34D (ligand)
chain: not shown
notes: Mutein of mature human NGF, expressed in HEK293 cells
By Kd is commonly meant the free concentration of one partner at which half of the binding sites on the other are occupied at equilibrium, for simple one-to-one binding. Low values mean tighter binding, high ones weaker binding. One may read the koff as a measure of how fast the partners let go of each other. One may read the kon as the rate constant with which the complex forms. B3: in assay [2], the “EC50 for stimulating TF1 cell proliferation, fold reduction against the wildtype” value was determined as 3 fold. For the same molecule, in assay [1], the “EC50 in TF-1 proliferation assay … at 4° C.” value came to 1.08 ng/mL and the “EC50 … protein kept 7 days at 55° C.” value was determined as 0.92 ng/mL. For the same molecule, in assay [3], the “EC50 in TF-1 proliferation assay, 4° C.” value came out at 1.01 ng/mL and the “EC50 … after storage at 55° C.” value was determined as 1.55 ng/mL. Besides, the “TrkA receptor Bio-activity” value in assay [4] came out at 1.01 ng/mL. For the same molecule, the “fold reduction of binding affinity against wildtype” value in assay [5] was 27 fold. In assay [6], binding was characterised by a dissociation constant (Kd) of 8.62 nM. In assay [7], the dissociation constant (Kd) was found to be 8.62 nM, the dissociation rate constant (koff) is 0.0235 s⁻¹ and the kon was 2.73e+06 M⁻¹ s⁻¹.

B4: NGF K34E (ligand)
chain: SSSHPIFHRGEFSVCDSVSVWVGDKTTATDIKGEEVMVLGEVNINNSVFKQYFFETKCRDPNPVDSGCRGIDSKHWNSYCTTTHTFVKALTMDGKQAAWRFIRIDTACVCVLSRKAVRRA
Turning to B4, in assay [1], the “EC50 in TF-1 proliferation assay … at 4° C.” value worked out at 2.79 ng/mL and the “EC50 … protein kept 7 days at 55° C.” value was 2.89 ng/mL.

B5: NGF R69A (ligand)
chain: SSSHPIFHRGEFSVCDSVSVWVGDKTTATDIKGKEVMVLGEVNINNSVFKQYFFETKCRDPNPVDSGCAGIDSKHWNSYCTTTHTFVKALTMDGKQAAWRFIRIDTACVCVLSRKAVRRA
Consider B5, for which, in assay [1], the “EC50 in TF-1 proliferation assay … at 4° C.” value amounted to 106 ng/mL.

B6: NGF R100E (ligand)
chain: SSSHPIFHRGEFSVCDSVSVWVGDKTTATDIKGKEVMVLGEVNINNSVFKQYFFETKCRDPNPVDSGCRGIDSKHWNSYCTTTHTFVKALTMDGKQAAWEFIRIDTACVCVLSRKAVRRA
As to B6, in assay [1], the “EC50 in TF-1 proliferation assay … at 4° C.” value was found to be 3.99 ng/mL and the “EC50 … protein kept 7 days at 55° C.” value came to 5.23 ng/mL.

B7: NGF K34A (ligand)
chain: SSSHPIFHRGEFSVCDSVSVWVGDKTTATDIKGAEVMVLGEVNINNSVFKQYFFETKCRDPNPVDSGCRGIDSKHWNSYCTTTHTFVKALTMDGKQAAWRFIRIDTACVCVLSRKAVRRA
Consider B7, for which the “EC50 for stimulating TF1 cell proliferation, fold reduction against the wildtype” value in assay [2] was 2 fold. Also, in assay [1], the “EC50 in TF-1 proliferation assay … at 4° C.” value is 1.5 ng/mL and the “EC50 … protein kept 7 days at 55° C.” value is 1.8 ng/mL.

B8: NGF K32A (ligand)
chain: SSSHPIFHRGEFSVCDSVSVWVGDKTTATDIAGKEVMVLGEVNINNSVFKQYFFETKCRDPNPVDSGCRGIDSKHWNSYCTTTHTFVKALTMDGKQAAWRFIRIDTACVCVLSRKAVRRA
Consider B8, for which, in assay [3], the “EC50 in TF-1 proliferation assay, 4° C.” value is 1.26 ng/mL and the “EC50 … after storage at 55° C.” value was determined as 1.12 ng/mL.

B9: NGF R69E (ligand)
chain: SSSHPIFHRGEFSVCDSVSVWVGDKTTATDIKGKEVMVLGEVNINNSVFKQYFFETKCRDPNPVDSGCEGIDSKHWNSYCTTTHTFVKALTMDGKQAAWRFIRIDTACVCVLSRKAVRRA
In the case of B9, the “EC50 in TF-1 proliferation assay … at 4° C.” value in assay [1] was found to be 53.9 ng/mL.
